# Source: PubChem BioAssay AID624296 (National Center for Advancing Translational Sciences (NCATS), 2012)
# The whole screen tested about 350,000 compounds, of which about 9,900 (2.8%) were called active. This list was built around the results that the source calls inconclusive (neither active nor inactive); the mix of calls is not that of the screen. Calls follow the shape of the dose curve; as a rule, active = well fitted activation curve with a large enough effect; inconclusive = small, poorly fitted or top-dose-only effect; inactive = no such curve, though single readings can be large or run the other way. Potencies of inconclusive entries are left out as doubtful fits.
# Experiment: A quantitative high throughput screen for small molecules that induce DNA re-replication in MCF 10a normal breast cells. Also: nearly all actives have a fitted effect of over 50% in size. As to activity, positive = re-replication: % of control where 0% means no effect.
# Conditions: MCF 10A DNA re-replication, Hoechst nuclear intensity, 48 h; activity, positive = re-replication: at 46.1 µM (top of the series)
# Potency is read from the fitted curve at half-maximal effect; tags tell the direction and shape of the fitted curve.
Structure (SMILES),Potency,"activity, positive = re-replication"
Cc1ccc(S(=O)(=O)N(C)C)cc1NC(=O)c1sccc1Cl,inactive,
CCCn1c(/N=C/c2c[nH]c3ccccc23)nc2ccccc21,inactive,
Cc1cccc(C(=O)Nc2cccc(C(=O)N/N=C/c3ccc4c(c3)OCO4)c2)c1,active: 13 µM,
O=S(=O)(Nc1nc2ccccc2nc1N1CCN(c2ccccc2F)CC1)c1ccc(Cl)cc1,active: 10.3 µM,
COc1ccc(CNC(=O)CN2C(=O)c3ccccc3S2(=O)=O)cc1,inactive,
COc1ccccc1CN1CC(C(=O)N2CCN(c3ccc(F)cc3)CC2)CC1=O (stereo unspecified),"inconclusive [activator, full curve, poor fit]",
O=C(Nc1ccc(N2CCCC2)c(S(=O)(=O)Nc2cccc(C(F)(F)F)c2)c1)c1cccs1,"inconclusive [activator, partial curve, poor fit]",
COc1ccc(-n2c(SCC(=O)Nc3nc(C)cs3)nnc2-c2ccoc2C)cc1,"inconclusive [activator, single point]",
O=C(N/N=C/c1cn(-c2ccccc2)nc1-c1cc2ccccc2o1)c1ccccc1Br,"inconclusive [activator, partial curve, poor fit]",
S=c1[nH]nc(-c2ccccn2)n1/N=C/c1ccc(-c2ccccc2Br)o1,"inconclusive [activator, partial curve]",
CCCOP(=O)(OCCC)c1c([N+](=O)[O-])cc(C(F)(F)F)cc1[N+](=O)[O-],"inconclusive [activator, partial curve, poor fit]",
Fc1ccc2[nH]c3c(N4CCN(Cc5ccc6c(c5)OCO6)CC4)ncnc3c2c1,"inconclusive [activator, single point]",
O=C1COc2ccccc2N1Cc1c(F)cccc1Cl,active: 23.1 µM,
Cc1cccc(CNc2ncnc3ccc(-c4ccc5c(c4)OCO5)cc23)c1,"inconclusive [activator, single point]",
CCOc1ccc2oc(C(=O)NCc3ccccc3CN3CCCC3)c(C)c2c1,"inconclusive [activator, partial curve, poor fit]",
Cc1nc2ccc(Br)cn2c1NC(C)(C)C,"inconclusive [activator, single point]",
O=C(COc1ccc(Cl)cc1)NCc1nnc(SCC(=O)NCc2ccc3c(c2)OCO3)o1,"inconclusive [activator, single point]",
O=C(N/N=C/c1cccs1)c1n[nH]c2c1CCCC2,"inconclusive [activator, single point]",
Cc1cc2oc(=O)cc(-c3ccccc3)c2c(C)c1-c1ccc(F)c(Cl)c1,inactive,
Cc1cc(Br)c(NC(=O)COn2nnc3ccc(S(C)(=O)=O)cc32)c(Br)c1,inactive,
Cc1cccc(N2CCN(C(=O)c3ccc4nc(-c5ccco5)c(-c5ccco5)nc4c3)CC2C)c1 (stereo unspecified),active: 11.6 µM,
CCCCCC(CC(=O)NO)C(=O)NC(C(=O)N1CCCC1CO)C(C)C (stereo unspecified),inactive,
Cc1onc(-c2ccccc2Cl)c1C(=O)Nc1ccc(CN2CCCC2)cc1,"inconclusive [activator, partial curve, poor fit]",
COC(=O)c1cccc(NC(=O)CCCOc2cccc(C)c2)c1,"inconclusive [activator, partial curve, poor fit]",

Structure (SMILES),Potency,"activity, positive = re-replication"
CSc1nnc(-c2ccncc2)n1/N=C/c1cn(-c2ccccc2)nc1-c1ccc(Cl)cc1,"inconclusive [activator, partial curve, poor fit]",
COc1cccc(C2C(C(N)=O)=C(C)Nc3nc(CCCO)nn32)c1OC (stereo unspecified),inactive,
COC(=O)C(C)Sc1nnc(Cc2cc(=O)[nH]c(=O)[nH]2)n1-c1cccc(OC)c1 (stereo unspecified),"inconclusive [activator, single point]",
COc1ccc(OC)c(-c2csc(NC(=O)Cc3ccccc3OC)n2)c1,inactive,
CCCCC[C@H](O)/C=C/[C@H]1[C@H](O)CC(=O)[C@@H]1C/C=C\CCCC(=O)O,"inconclusive [activator, partial curve, poor fit]",
CCc1ccc(C(=O)CSc2nc(C)cc(=O)[nH]2)cc1,"inconclusive [activator, single point]",
c1ccc(CCNc2nc(-c3ccccn3)nc3ccccc23)cc1,inactive,
CCOC(=O)/C=C/C(=O)OCC(=O)Nc1cccc(Cl)c1Cl,"inconclusive [activator, single point]",
Clc1ccc(-n2nnnc2-c2cnc(-c3ccccn3)nc2-c2cccs2)cc1,"inconclusive [activator, single point]",
Cc1ccc(SCCNC(=O)c2cccc([N+](=O)[O-])c2C)cc1,"inconclusive [activator, partial curve, poor fit]",
CC(=O)Nc1ccc(NC2=CC(=O)c3ccccc3C2=O)cc1,inactive,
Cc1ccc(S(=O)(=O)Nc2ccc3c(c2)nc2n3CCN(Cc3ccccc3)C2)cc1,inactive,
O=C(NC(=S)NCc1ccc(Cl)cc1)c1ccco1,"inconclusive [activator, single point]",
CC(Oc1ccccc1)c1nnc(N)s1 (stereo unspecified),"inconclusive [activator, single point]",
Cc1snc(SCc2cccc(Cl)c2)c1C#N,inactive,
COc1cc(C(=O)O/N=C2/C=CC(=O)C(C)=C2C)cc(OC)c1OC,active: 23.1 µM,
CCN(CC)c1ccc(C(=O)N/N=C(\C)c2cccc(OC)c2)cc1,"inconclusive [activator, partial curve, poor fit]",
COc1ccc(OCC(O)Cn2c(=N)n(Cc3ccccc3)c3ccccc32)cc1 (stereo unspecified),"inconclusive [activator, full curve, poor fit]",
CCOc1ccc2oc(C(=O)N3CCN(Cc4ccccc4)CC3)c(C)c2c1,active: 20.6 µM,
Cc1ccc(NC(=O)CSc2nc(C)c(Cc3ccccc3)c(=O)[nH]2)cc1,"inconclusive [activator, single point]",
Cc1[nH]c2c(ccc3ccccc32)c1C1C(CCN)C1(C)C (stereo unspecified),"inconclusive [activator, partial curve, poor fit]",
CC(C)CCOc1ccc(C(=O)NCC(c2cccs2)N2CCOCC2)cc1 (stereo unspecified),inactive,
CCn1c(C)c(C(C)=O)c(N2CCCC2)nc1=S,,inactive: -128% [at 0.0737 µM]
CCOc1ccc(NC(=O)CCC(=O)NNC(=O)COc2ccccc2C)cc1,inactive,

Structure (SMILES),Potency,"activity, positive = re-replication"
CSCC[C@H](NC(=O)[C@@H]1Cc2c([nH]c3ccccc23)C2c3ccccc3C(=O)N21)C(=O)NCC1CCCO1 (stereo partly specified),"inconclusive [activator, full curve, poor fit]",
COc1cccc(CSc2nc3cc4c(cc3cc2C)OCCO4)c1,"inconclusive [activator, single point]",
CCCCSc1nc2c(cnn2-c2ccccc2)c(=O)n1N,inactive,
Cc1cc(OCCCn2cnc3ccccc3c2=O)ccc1[N+](=O)[O-],inactive,
Cn1c(/C=C/c2cccc(Br)c2)nc2ccccc2c1=O,active: 23.1 µM,
Nc1nnnn1/N=C/c1ccc(N2CCCCC2)c([N+](=O)[O-])c1,"inconclusive [activator, full curve, poor fit]",
CCc1ccc(OCC(=O)NC2CCCCC2)c(Br)c1,inactive,
N#Cc1cnn(-c2nc3sc4c(c3c(=O)[nH]2)CCCC4)c1N,"inconclusive [activator, full curve, poor fit]",
O=C1NC2(CCC3(CC2)OCCO3)NN1c1ccc(Cl)cc1,"inconclusive [activator, full curve]",
NC1(C(=O)O)CSSC1,active: 10.3 µM,
CSc1oc(-c2ccco2)nc1S(=O)(=O)c1ccc(C)cc1,inactive,
CCCC12CN3CC(C)(CN(C1)C31C(=O)Nc3ccc(C)cc31)C2=O (stereo unspecified),"inconclusive [activator, full curve, poor fit]",
CCOc1ccc(/C=N/NC(=O)c2cc(-c3ccco3)nc3ccccc23)cc1,active: 4.11 µM,
O=C(NC(=S)Nc1ccc(N2CCOCC2)c(Cl)c1)c1cccs1,inactive,
COCCN(Cc1cc2cc(C)c(C)cc2nc1Cl)C(=O)Nc1ccccc1,inactive,
CC(C)c1ccccc1OCCCCCNCCO,"inconclusive [activator, partial curve, poor fit]",
COc1ccc(OC)c2nc3c(C(=O)NCCN(C)C)cccc3nc12,"inconclusive [activator, full curve, poor fit]",
COc1cccc(NC(=O)Nc2cc(NC(=O)Nc3cccc(OC)c3)c(C)nc2C)c1,"inconclusive [activator, single point]",
Cc1cc(C)cc(Oc2coc3cc(OC(=O)c4cccnc4)ccc3c2=O)c1,"inconclusive [activator, single point]",
Cc1ccc(S(=O)(=O)NCCC2=CCCCC2)cc1,"inconclusive [activator, partial curve, poor fit]",
O=C(NNc1c2ccccc2nc2ccccc12)c1ccccc1Cl,"inconclusive [activator, partial curve, poor fit]",
COc1ccc(O)c(/C=N/NC(=S)NCCc2ccccc2)c1,"inconclusive [activator, single point]",
CC(C(c1ccc2c(c1)OCO2)c1c(N)n(C)c(=O)n(C)c1=O)[N+](=O)[O-] (stereo unspecified),active: 11.6 µM,
